In the supplement of paper PMC8728848:
Some of the results follow.

Key:
Assay in all cases: glycan array binding signal (z-score within array); higher = stronger binding
Conditions in all cases: glycan notation: IUPAC condensed, linker removed
[1] = biological target: Neu5Ac(a2-6)Gal(b1-4)GlcNAc(b1-6)[Gal(b1-3)GlcNAc(b1-3)]Gal(b1-4)Glc
Method in brief: (§1)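 The binding signal is a Z-score computed within each array. Data were drawn from 3228 arrays in the Consortium for Functional Glycomics database, restricted to those with a known protein sequence. Scores were averaged over arrays of the same protein sequence at different concentrations or buffers, and over linkers, and negative values can be taken as non-binding.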

[2] = biological target: Neu5Ac(a2-6)Gal(b1-4)GlcNAc(b1-6)[Gal(b1-3)]GalNAc
Method in brief: as §1

[3] = biological target: Neu5Ac(a2-6)Gal(b1-4)GlcNAc6S
Method in brief: as §1

[4] = biological target: Neu5Ac(a2-6)GalNAc
Method in brief: as §1

[5] = biological target: Neu5Ac(a2-6)GalNAc(b1-4)GlcNAc
Method in brief: as §1

[6] = biological target: Neu5Ac(a2-6)GalNAc(b1-4)GlcNAc6S
Method in brief: as §1

[7] = biological target: Neu5Ac(a2-6)GlcNAc(b1-4)GlcNAc
Method in brief: as §1

[8] = biological target: Neu5Ac(a2-6)GlcNAc(b1-4)GlcNAc(b1-4)GlcNAc
Method in brief: as §1

[9] = biological target: Neu5Ac(a2-8)Neu5Ac
Method in brief: as §1

[10] = biological target: Neu5Ac(a2-8)Neu5Ac(a2-3)Gal(b1-3)GalNAc(b1-4)[Neu5Ac(a2-3)]Gal(b1-4)Glc
Method in brief: as §1

[11] = biological target: Neu5Ac(a2-8)Neu5Ac(a2-3)Gal(b1-3)GalNAc(b1-4)[Neu5Ac(a2-8)Neu5Ac(a2-3)]Gal(b1-4)Glc
Method in brief: as §1

[12] = biological target: Neu5Ac(a2-8)Neu5Ac(a2-3)Gal(b1-4)Glc
Method in brief: as §1

[13] = biological target: Neu5Ac(a2-8)Neu5Ac(a2-3)Gal(b1-4)GlcNAc
Method in brief: as §1

[14] = biological target: Neu5Ac(a2-8)Neu5Ac(a2-3)[Gal(b1-3)GalNAc(b1-4)]Gal(b1-4)Glc
Method in brief: as §1

[15] = biological target: Neu5Ac(a2-8)Neu5Ac(a2-3)[GalNAc(b1-4)]Gal(b1-4)Glc
Method in brief: as §1

[16] = biological target: Neu5Ac(a2-8)Neu5Ac(a2-8)Neu5Ac
Method in brief: as §1

[17] = biological target: Neu5Ac(a2-8)Neu5Ac(a2-8)Neu5Ac(a2-3)Gal(b1-4)Glc
Method in brief: as §1

[18] = biological target: Neu5Ac(a2-8)Neu5Ac(a2-8)Neu5Ac(a2-3)[Gal(b1-3)GalNAc(b1-4)]Gal(b1-4)Glc
Method in brief: as §1

[19] = biological target: Neu5Ac(a2-8)Neu5Ac(a2-8)Neu5Ac(a2-3)[GalNAc(b1-4)]Gal(b1-4)Glc
Method in brief: as §1

[20] = biological target: Neu5Ac(a2-8)Neu5Ac(a2-8)Neu5Ac(a2-8)Neu5Ac(a2-3)[GalNAc(b1-4)]Gal(b1-4)Glc
Method in brief: as §1

[21] = biological target: Neu5Ac(a2-8)Neu5Gc(a2-3)Gal(b1-4)GlcNAc
Method in brief: as §1

[22] = biological target: Neu5Ac(b1-6)GalNAc
Method in brief: as §1

[23] = biological target: Neu5Ac(b2-6)Gal(b1-4)GlcNAc
Method in brief: as §1

[24] = biological target: Neu5Ac(b2-6)GalNAc
Method in brief: as §1

[25] = biological target: Neu5Ac9Ac(a2-3)Gal(b1-4)GlcNAc
Method in brief: as §1

[26] = biological target: Neu5Ac9Ac(a2-6)Gal(b1-4)GlcNAc
Method in brief: as §1

[27] = biological target: Neu5Gc(a2-3)Gal(b1-3)GlcNAc
Method in brief: as §1

[28] = biological target: Neu5Gc(a2-3)Gal(b1-3)[Fuc(a1-4)]GlcNAc
Method in brief: as §1

[29] = biological target: Neu5Gc(a2-3)Gal(b1-4)Glc
Method in brief: as §1

[30] = biological target: Neu5Gc(a2-3)Gal(b1-4)GlcNAc
Method in brief: as §1

[31] = biological target: Neu5Gc(a2-3)Gal(b1-4)GlcNAc(b1-3)Gal(b1-4)GlcNAc(b1-2)Man(a1-3)[Neu5Gc(a2-3)Gal(b1-4)GlcNAc(b1-3)Gal(b1-4)GlcNAc(b1-2)Man(a1-6)]Man(b1-4)GlcNAc(b1-4)GlcNAc
Method in brief: as §1

[32] = biological target: Neu5Gc(a2-3)Gal(b1-4)[Fuc(a1-3)]GlcNAc
Method in brief: as §1

[33] = biological target: Neu5Gc(a2-6)Gal(b1-4)GlcNAc
Method in brief: as §1

[34] = biological target: Neu5Gc(a2-6)GalNAc
Method in brief: as §1

[35] = biological target: Neu5Gc(a2-8)Neu5Ac(a2-3)Gal(b1-4)GlcNAc
Method in brief: as §1

[36] = biological target: Neu5Gc(a2-8)Neu5Gc(a2-3)Gal(b1-4)GlcNAc
Method in brief: as §1

[37] = biological target: Neu5Gc(a2-8)Neu5Gc(a2-3)Gal(b1-4)GlcNAc(b1-3)Gal(b1-4)GlcNAc
Method in brief: as §1

[38] = biological target: Neu5Gc(a2-8)Neu5Gc(a2-6)Gal(b1-4)GlcNAc
Method in brief: as §1

[39] = biological target: Neu5Gc(b2-6)Gal(b1-4)GlcNAc
Method in brief: as §1

B1: Gal 8 (Homo sapiens) (protein)
chain: MLSLNNLQNIIYNPVIPYVGTIPDQLDPGTLIVICGHVPSDADRFQVDLQNGSSVKPRADVAFHFNPRFKRAGCIVCNTLINEKWGREEITYDTPFKREKSFEIVIMVLKDKFQVAVNGKHTLLYGHRIGPEKIDTLGIYGKVNIHSIGFSFSSDLQSTQASSLELTEISRENVPKSGTPQLQTVSPSWDLQGHGSETFCSVLWTRVFLEIAFCRPIGLTVASFQSLPFAARLNTPMGPGRTVVVKGEVNANAKSFNVDLLAGKSKDIALHLNPRLNIKAFVRNSFLQESWGEEERNITSFPFSPGMYFEMIIYCDVREFKVAVNGVHSLEYKHRFKELSSIDTLEINGDIHLLEVRSW
**Q.** How did the “glycan array binding signal (z-score)” value [1] turn out when B1 was run?
**A.** -0.352

**Q.** And the “glycan array binding signal (z-score)” value [2]?
**A.** -0.354

**Q.** What about the “glycan array binding signal (z-score)” value [3] of the same binder?
**A.** -0.362

**Q.** What about the “glycan array binding signal (z-score)” value [4] of the same binder?
**A.** -0.183

**Q.** And the “glycan array binding signal (z-score)” value [5]?
**A.** -0.398

**Q.** And the “glycan array binding signal (z-score)” value [6]?
**A.** -0.356

**Q.** What about the “glycan array binding signal (z-score)” value [7] of the same binder?
**A.** -0.357

**Q.** And the “glycan array binding signal (z-score)” value [8]?
**A.** -0.356

**Q.** And the “glycan array binding signal (z-score)” value [9]?
**A.** -0.355

**Q.** What about the “glycan array binding signal (z-score)” value [10] of the same binder?
**A.** 0.65

**Q.** What about the “glycan array binding signal (z-score)” value [11] of the same binder?
**A.** -0.356

**Q.** And the “glycan array binding signal (z-score)” value [12]?
**A.** 1.63

**Q.** And the “glycan array binding signal (z-score)” value [13]?
**A.** -0.262

**Q.** What about the “glycan array binding signal (z-score)” value [14] of the same binder?
**A.** -0.355

**Q.** And the “glycan array binding signal (z-score)” value [15]?
**A.** -0.398

**Q.** What about the “glycan array binding signal (z-score)” value [16] of the same binder?
**A.** -0.396

**Q.** What about the “glycan array binding signal (z-score)” value [17] of the same binder?
**A.** 0.367

**Q.** And the “glycan array binding signal (z-score)” value [18]?
**A.** -0.355

**Q.** What about the “glycan array binding signal (z-score)” value [19] of the same binder?
**A.** -0.399

**Q.** And the “glycan array binding signal (z-score)” value [20]?
**A.** -0.145

**Q.** And the “glycan array binding signal (z-score)” value [21]?
**A.** -0.261

**Q.** What about the “glycan array binding signal (z-score)” value [22] of the same binder?
**A.** -0.75

**Q.** What about the “glycan array binding signal (z-score)” value [23] of the same binder?
**A.** -0.379

**Q.** And the “glycan array binding signal (z-score)” value [24]?
**A.** -0.369

**Q.** What about the “glycan array binding signal (z-score)” value [25] of the same binder?
**A.** -0.35

**Q.** And the “glycan array binding signal (z-score)” value [26]?
**A.** -0.402

**Q.** And the “glycan array binding signal (z-score)” value [27]?
**A.** 0.648

**Q.** What about the “glycan array binding signal (z-score)” value [28] of the same binder?
**A.** -0.15

**Q.** And the “glycan array binding signal (z-score)” value [29]?
**A.** 0.727

**Q.** What about the “glycan array binding signal (z-score)” value [30] of the same binder?
**A.** -0.037

**Q.** And the “glycan array binding signal (z-score)” value [31]?
**A.** -0.198

**Q.** What about the “glycan array binding signal (z-score)” value [32] of the same binder?
**A.** -0.269

**Q.** What about the “glycan array binding signal (z-score)” value [33] of the same binder?
**A.** -0.399

**Q.** And the “glycan array binding signal (z-score)” value [34]?
**A.** -0.4

**Q.** And the “glycan array binding signal (z-score)” value [35]?
**A.** -0.295

**Q.** What about the “glycan array binding signal (z-score)” value [36] of the same binder?
**A.** -0.284

**Q.** And the “glycan array binding signal (z-score)” value [37]?
**A.** -0.233

**Q.** And the “glycan array binding signal (z-score)” value [38]?
**A.** -0.355

**Q.** What about the “glycan array binding signal (z-score)” value [39] of the same binder?
**A.** -0.364
